Results on 43 compounds are retold here after ChEMBL document CHEMBL4888484, “Replenishing the malaria drug discovery pipeline: Screening and hit evaluation of the MMV Hit Generation Library 1 (HGL1) against asexual blood stage Plasmodium falciparum ,using a nano luciferase reporter read-out” (2022).

In all, about 150,000 compounds went through this assay and about 540 (0.36%) showed an effect of 50% or more. The list shows a part of the results.

The assay has as its system Plasmodium falciparum. Briefly: Primary screen in NF54 nanoGlo assay, in single point, at 2uM, 72h; a lower Z score goes with more inhibition. As to conditions: timepoint 72 hour. In kind it is functional, Erythrocyte.
`O=C(CN1CCN(CC(F)(F)C(F)F)CC1)NCc1ccco1`: the “% Inhibition” value is reported as -8% and the Z score was 1.26.

As for `C=CCN(C)C(=O)c1cnc(C2CCN(C(=O)OC(C)(C)C)CC2)o1`, the “% Inhibition” value is -9% and the Z score came out at 1.48.

Turning to `CCc1ccc(CN2CCC(Oc3ccc(C)cc3)(C(=O)O)CC2)nc1`, the “% Inhibition” value is given as 4% and the Z score was -0.86.

Take `Cc1[nH]c2cc(-c3ccccc3)nn2c(=O)c1Cc1ccccc1`: the “% Inhibition” value was -1% and the Z score is 0.08.

As for `Cc1noc(C2CN(Cc3ccoc3)C2)n1`, the “% Inhibition” value was -8% and the Z score amounted to 1.6.

As to `CN(C)C(=O)NCC(=O)NCCCn1cc(Cl)cn1`, the “% Inhibition” value amounted to 10% and the Z score is -0.98.

For `CC(C)(C)C(=O)N1C2CCC1CC(n1ccnn1)C2` (stereo unspecified), the “% Inhibition” value is given as -3% and the Z score amounted to 0.47.

`CCOC(C)(C)CS(=O)(=O)N(C)Cc1ccoc1C`: the “% Inhibition” value is given as -6% and the Z score is reported as 1.24.

Consider `CC(C)c1noc(CN(C2CC2)S(=O)(=O)c2cccnc2)n1`, for which the “% Inhibition” value is reported as -18% and the Z score turned out to be 1.58.

For `Cc1ccc2ncc(-c3nccn3C(C)C)cc2c1`, the “% Inhibition” value is recorded as -10% and the Z score was 1.95.

As for `O=C(c1cscn1)N1CCC=Cc2ccccc21`, the “% Inhibition” value came out at 1% and the Z score is reported as -0.27.

Consider `CCCCn1c(N)c(N(Cc2ccccc2OC)C(=O)c2cc(C)cc(C)c2)c(=O)[nH]c1=O`, for which the “% Inhibition” value is recorded as -4% and the Z score amounted to 0.45.

As to `FC(F)COc1cccc(CNC2C3CCOC3C23CCC3)n1` (stereo unspecified), the “% Inhibition” value is listed as -2% and the Z score is on record as 0.23.

Turning to `Cc1ccc(C(=O)N2CC[C@H](N(CCN3CCCC3)S(=O)(=O)N(C)C)C2)cc1C`, the “% Inhibition” value is -3% and the Z score was 0.47.

`OCCC1(CNC[C@H](O)c2ccccc2F)CCC1`: the “% Inhibition” value was -15% and the Z score was 1.9.

For `Cc1cc(C(=O)N2CCO[C@H](c3ccccc3)CC2)ncn1`, the “% Inhibition” value is -14% and the Z score is 2.71.

For `COCCOCCNC(=O)c1sc(-c2c(C)noc2C)nc1C`, the “% Inhibition” value worked out at 28% and the Z score is recorded as -3.15.

Take `CC(C)[C@@H](CO)NC(=O)C1(C)COC1`: the “% Inhibition” value is -9% and the Z score came out at 1.7.

On to `COc1ccc2ccn(Cc3ccccc3C)c(=O)c2c1`, for which the “% Inhibition” value is -10% and the Z score came out at 1.98.

Take `C=CCC(C(=O)NC(C)c1nnc(C(F)(F)F)[nH]1)c1ccccc1` (stereo unspecified): the “% Inhibition” value is -4% and the Z score turned out to be 0.83.

As for `CC(C)c1ccc(CN2CCOc3c(O)cc(-c4ccccn4)cc3C2)cc1`, the “% Inhibition” value is on record as -15% and the Z score is 2.02.

Take `CCN1C(=O)c2cc3ccccc3n2C[C@@]1(C)C(=O)NCC(=O)NCc1ccc(OC)cc1`: the “% Inhibition” value was -4% and the Z score came out at 0.41.

`Brc1ccccc1OCCN1CCc2nc[nH]c2C12CCOCC2`: the “% Inhibition” value is -18% and the Z score turned out to be 2.77.

Consider `Cn1nc(C(F)F)cc1C(=O)NC[C@H]1CCCN(c2ccnc(C(=O)O)c2)C1`, for which the “% Inhibition” value is on record as -8% and the Z score is on record as 1.37.

Regarding `COC[C@H](C)NC(=O)Nc1cccc(Cl)c1F`, the “% Inhibition” value is listed as -14% and the Z score was 1.23.

On to `O=C(Cn1cccn1)N1CCC[C@@H]1CF`, for which the “% Inhibition” value is on record as -7% and the Z score stood at 0.86.

Regarding `CCN1C(=O)CO[C@H](C(=O)Nc2ccnc(C(C)(C)C)n2)[C@H]1c1cnn(C)c1`, the “% Inhibition” value is -1% and the Z score was determined as 0.06.

Consider `CC(CS(=O)O)C(=O)NC1CCCCC1` (stereo unspecified), for which the “% Inhibition” value is reported as -2% and the Z score is given as 0.38.

In the case of `COC1CS(=O)(=O)CC1NC(=O)Nc1c(C)cc(Cl)c2ccccc12` (stereo unspecified), the “% Inhibition” value is on record as 5% and the Z score was -0.65.

In the case of `OC[C@H]1CCCN1c1ncnc2sc(-c3ccccc3)cc12`, the “% Inhibition” value is listed as -54% and the Z score is recorded as 6.33.

Turning to `O=C(Nc1ccc(F)cc1F)[C@H]1CCCN(S(=O)(=O)c2c[nH]c(C(=O)N3CCCCCC3)c2)C1`, the “% Inhibition” value is given as -3% and the Z score is recorded as 0.28.

Take `C#CCNC(=O)CNC(=O)C#Cc1ccc(C(F)(F)F)cc1`: the “% Inhibition” value is on record as 27% and the Z score is -3.72.

On to `CC(C)(C)n1cc(CN[C@H]2CCc3nnc(Cc4ccccc4)n3C2)cn1`, for which the “% Inhibition” value is recorded as 0% and the Z score was determined as 0.02.

As for `CN(C[C@H]1CCOC1)C(=O)C1CCCCC1`, the “% Inhibition” value was -3% and the Z score turned out to be 0.41.

Regarding `O=C(NC1CCCCCC1)c1nn(Cc2ccccc2)c(=O)c2ccccc12`, the “% Inhibition” value was -8% and the Z score is on record as 1.27.

Regarding `Cc1nc(CN2CCc3ccccc3C2)no1`, the “% Inhibition” value was -12% and the Z score is listed as 2.34.

On to `O=C(c1ccccc1)N1CCN(C[C@H](O)CN2CCOCC2)CC1`, for which the “% Inhibition” value was -4% and the Z score was found to be 0.54.

Take `CC(C)(CNC1CCCCC1S(C)(=O)=O)CC1CCOCC1` (stereo unspecified): the “% Inhibition” value is listed as -4% and the Z score was 0.42.

Turning to `O=C1c2ccccc2C(=O)N1CCCCNc1ccc2nnnn2n1`, the “% Inhibition” value is -9% and the Z score is given as 1.47.

Take `CC(C)Oc1cccc(CN2CCn3nc(CNc4ncccn4)cc3C2)c1`: the “% Inhibition” value was -10% and the Z score was determined as 2.07.

On to `Cc1ncn(Cc2nc(Cc3ccccc3)no2)c1C`, for which the “% Inhibition” value was -9% and the Z score was 0.89.

As to `Cc1cnc(CCNC(=O)Nc2ccnn2C2CCCCC2)s1`, the “% Inhibition” value is on record as -7% and the Z score is reported as 1.15.

In the case of `CC(C)(C)CN(CCC#N)Cc1cccc(O)c1`, the “% Inhibition” value is listed as -8% and the Z score is on record as 1.52.
